Source: PubChem BioAssay AID686970 (National Center for Advancing Translational Sciences (NCATS), 2013)
The campaign covered roughly 360,000 compounds. About 6,000 (1.7%) were called active. The shares of active, inactive and inconclusive entries below differ from those in the screen. The call rests on the fitted dose curve; in most records, active means well fitted cell-killing curve with a large enough effect; inconclusive means small, poorly fitted or top-dose-only effect, or effect the other way; inactive means flat fitted curve, though single readings scatter. Potencies of inconclusive entries are left out as doubtful fits.

Assay: qHTS for induction of synthetic lethality in tumor cells producing 2HG: qHTS for the HT-1080-NT fibrosarcoma cell line;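 further: NT is the 2HG producing partner of a matched IDH1 knockdown line; nearly all actives have a fitted effect of over 55% in size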;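 on activity, negative = less viability: 0% = DMSO-treated cells and -100% = media-only wells without cells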
Conditions: HT-1080-NT fibrosarcoma viability, CellTiter-Glo ATP luminescence, 48 h; activity, negative = less viability: at 46.1 µM (top of the series)
Procedure, shortened: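 A 48-hour cytotoxicity screen used HT-1080-NT cells plated 2 hours before compound delivery. ATP-based CellTiter-Glo luminescence measured viability, normalized to DMSO and no-cell controls.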
Potency means the concentration at half of the fitted maximal effect; tags describe the fitted curve by direction and shape.

| SMILES | activity, negative = less viability | Potency |
| --- | --- | --- |
| C/C(CC(c1ccccc1)c1c(O)c2ccccc2oc1=O)=N\NC(N)=S (centres undefined) | inactive: -0.0331% |  |
| CCN1C(=O)C(=Cc2ccc(C)s2)C(=O)N(CC)C1=S |  | inconclusive [cytotoxic, single point] |
| CC(=O)Nc1ccccc1C(=O)OCc1ccc(C(=O)c2ccccc2)cc1 |  | inconclusive [cytotoxic, single point] |
| COc1cccc(C(c2nnnn2-c2ccc3c(c2)OCCO3)N2CCC3(CC2)C(=O)NCN3c2ccccc2)c1OC (centres undefined) |  | inconclusive [cytotoxic, single point] |
| CCCCc1cc(=O)oc2cc(OCC(=O)N3C[C@H]4C[C@@H](C3)c3cccc(=O)n3C4)c(Cl)cc12 | inactive: -3.81% |  |
| N#CC(C#N)=NNc1ccc(-n2ccc(C(F)(F)F)n2)cc1 |  | inconclusive [cytotoxic, partial curve] |
| O=P(O)(O)CN1CCNCCN(CP(=O)(O)O)CCNCC1 | inactive: 2.84% |  |
| C[n+]1ccc(-c2cc[n+](C)cc2)cc1 |  | inconclusive [cytotoxic, partial curve, poor fit] |
| O=C(NC1(C(F)(F)F)Oc2ccccc2O1)N1CCC2(CC1)OCCO2 |  | inconclusive [cytotoxic, single point] |
| COc1cc(C(c2c(C)[nH]n(-c3ccccc3)c2=O)c2c(C)[nH]n(-c3ccccc3)c2=O)cc(OC)c1OC |  | inconclusive [cytotoxic, single point] |
| O=C1NC(=O)N(Cc2ccco2)C(=O)/C1=C\c1ccc(-c2ccc(F)cc2)o1 |  | inconclusive [cytotoxic, partial curve] |
| O=C(O)C(Cc1cnc[nH]1)NS(=O)(=O)c1ccc(Br)cc1 (centres undefined) |  | inconclusive [cytotoxic, single point] |
| CCOc1ccc(N2C(=O)/C(=C/c3ccc(C)o3)C(=O)NC2=S)cc1 | inactive: -4.14% |  |
| CCCCn1c(O)c(/C=C2/C=CC=N2)c(=O)[nH]c1=O |  | active: 14.6 µM |
| Cc1cc(C(=O)Nc2ccccc2)nn1C(C)(C)C | inconclusive: 4.8% |  |
| CN1C2CCC1CC(OC(=O)c1cc(Cl)cc(Cl)c1)C2 (centres undefined) |  | inconclusive [cytotoxic, single point] |
| Cc1ccc(-n2sc3ccccc3c2=O)cc1 |  | inconclusive [cytotoxic, single point] |
| CC(C)COP(=O)(OCC(C)C)C(Nc1ccccc1)c1ccccc1 (centres undefined) |  | active: 18.4 µM |
| On1ccccc1=S |  | active: 0.0411 µM |
| COC(=O)[C@@H]1[C@@H](C(=O)OC)C2(c3ccccc3-c3ccccc32)N(c2ccc(Cl)cc2)N1C#N |  | active: 4.61 µM |
| O=C(c1ccc2c(c1)ncn2-c1ccc(F)cc1F)N1CCC2(CC1)OCCO2 |  | active: 14.6 µM |
| CCOC(=O)c1c(N)n(Cc2ccccc2)c2nc3ccccc3nc12 |  | inconclusive [cytotoxic, single point] |

| SMILES | activity, negative = less viability | Potency |
| --- | --- | --- |
| CC(=O)OC1CC(OC2C(O)CC(OC3C(O)CC(OC4CCC5(C)C(CCC6C5CCC5(C)C(C7=CC(=O)OC7)C(O)CC65O)C4)OC3C)OC2C)OC(C)C1OC1OC(CO)C(O)C(O)C1O (centres undefined) |  | active: 0.651 µM |
| CCCCN=C[C@]12CCC(O)CC1(O)CCC1[C@@H]2CC[C@]2(C)[C@H](C3C=CC(=O)O3)CCC12O (some centres undefined) |  | active: 1.84 µM |
| C[n+]1c(-c2ccccc2)cc(CCCCc2cc(-c3ccccc3)[n+](C)c(-c3ccccc3)c2)cc1-c1ccccc1 |  | inconclusive [cytotoxic, single point] |
| Cc1cc(O)c2c(c1)C(=O)C13C(=C2O)C(=O)[C@H]2[C@@H](O)[C@@H]1[C@H]1[C@H](O)[C@@H]3C(=O)C3=C(O)c4c(O)cc(C)cc4C(=O)C312 (some centres undefined) |  | active: 0.58 µM |
| CCOP(=O)(OCC)C(Cc1ccccc1)N=C(c1ccccc1)c1ccccc1 (centres undefined) |  | inconclusive [cytotoxic, single point] |
| CCOC(=O)[C@]12Cc3cc(C)ccc3[C@H]1N(C1CCCCC1)C(=O)c1cc(OC)ccc12 |  | active: 2.91 µM |
| N#CSCC(=O)N1c2ccccc2CCc2ccccc21 |  | inconclusive [cytotoxic, single point] |
| CCOC(=O)[C@]12Cc3cc(Cl)ccc3[C@H]1N(C1CCCCC1)C(=O)c1cc(OC)ccc12 |  | active: 2.31 µM |
| CCOc1cc2c(cc1OCC)-n1cccc1C(c1ccc(C(C)C)cc1)NC2 (centres undefined) |  | active: 16.4 µM |
| O=C(CCc1ccccc1)N1Cc2cc(-c3cccc(F)c3)ccc2-n2nncc2C1 |  | inconclusive [cytotoxic, single point] |
| C=CCNC(=O)c1c(N)n(Cc2ccco2)c2nc3ccccc3nc12 |  | inconclusive [cytotoxic, single point] |
| Cc1[nH]c2c(C(F)(F)F)cccc2c1CCN |  | inconclusive [cytotoxic, single point] |
| CN(C(=O)CNC(=O)OCc1ccccc1)c1ccc(Br)cc1C(=O)c1ccccc1Cl |  | inconclusive [cytotoxic, partial curve] |
| Cc1cc(C)c2c(c1)-c1cc(C)nn1C(c1cccnc1)N2 (centres undefined) | inactive: -7.74% |  |
| CSc1ccccc1C(=O)C1CCCN(Cc2ccn[nH]2)C1 (centres undefined) | inactive: -0.293% |  |
| Cc1nc(SCc2c(Cl)cccc2Cl)nc(OC(=O)N(C)C)c1C | inactive: -1.97% |  |
| COC1CC2C=C(C)C=CC=CC(=O)NC(c3ccccc3)CC=CCCC(O)CC(=O)C2=C1O (centres undefined) |  | active: 1.84 µM |
| CC(=NCc1ccc2c(c1)OCO2)c1c(O)n(C)c(=O)n(C)c1=O |  | active: 2.51 µM |
| CCCCn1nnnc1C(CCc1ccccc1)N1CCC2(CC1)C(=O)NCN2c1ccccc1 (centres undefined) |  | inconclusive [cytotoxic, single point] |
| CN(C)P(=NC(=S)c1cccn1C)(N(C)C)N(C)C |  | inconclusive [cytotoxic, single point] |
| Cc1cccc(N=Nc2ccc(N(C)C)cc2)c1 | inactive: -0.0678% |  |
| CCCn1c(C)c(C(=O)c2cccc3ccccc23)c2ccccc21 |  | inconclusive [cytotoxic, single point] |
